We go through 1 protein from patent US20120252071.

B1: wild-type T7 RNA polymerase including His6-tag (protein)
chain: MNTINIAKNDFSDIELAAIPFNTLADHYGERLAREQLALEHESYEMGEARFRKMFERQLKAGEVADNAAAKPLITTLLPKMIARINDWFEEVKAKRGKRPTAFQFLQEIKPEAVAYITIKTTLACLTSADNTTVQAVASAIGRAIEDEARFGRIRDLEAKHFKKNVEEQLNKRVGHVYKKAFMQVVEADMLSKGLLGGEAWSSWHKEDSIHVGVRCIEMLIESTGMVSLHRQNAGVVGQDSETIELAPEYAEAIATRAGALAGISPMFQPCVVPPKPWTGITGGGYWANGRRPLALVRTHSKKALMRYEDVYMPEVYKAINIAQNTAWKINKKVLAVANVITKWKHCPVEDIPAIEREELPMKPEDIDMNPEALTAWKRAAAAVYRKDKARKSRRISLEFMLEQANKFANHKAIWFPYNMDWRGRVYAVSMFNPQGNDMTKGLLTLAKGKPIGKEGYYWLKIHGANCAGVDKVPFPERIKFIEENHENIMACAKSPLENTWWAEQDSPFCFLAFCFEYAGVQHHGLSYNCSLPLAFDGSCSGIQHFSAMLRDEVGGRAVNLLPSETVQDIYGIVAKKVNEILQADAINGTDNEVVTVTDENTGEISEKVKLGTKALAGQWLAYGVTRSVTKRSVMTLAYGSKEFGFRQQVLEDTIQPAIDSGKGLMFTQPNQAAGYMAKLIWESVSVTVVAAVEAMNWLKSAAKLLAAEVKDKKTGEILRKRCAVHWVTPDGFPVWQEYKKPIQTRLNLMFLGQFRLQPTINTNKDSEIDAHKQESGIAPNFVHSQDGSHLRKTVVWAHEKYGIESFALIHDSFGTIPADAANLFKAVRETMVDTYESCDVLADFYDQFADQLHESQLDKMPALPAKGNLNLRDILESDFAFA
B1: the fluorescence (arbitrary units), RNA polymerase activity, 10 mM DTT in reaction mixture (arbitrary units) was found to be 12.4 and the fluorescence (arbitrary units), RNA polymerase activity, no reducing agent (arbitrary units) worked out at 8.09.
